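In this assay, cells in 96-well plates receive the compound at five concentrations for 48 hours. Endpoints are linearly interpolated between the surrounding concentrations. At the GI50, growth is halved. TGI is the concentration that stops growth completely.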
Each compound was assayed on NCI-H322M lung (assay: DTP human tumour cell line panel, 48 h).
In the case of `CCOC(=O)c1c(NC(=O)c2cccc(C(F)(F)F)c2)sc2c1CCC(=O)C2`, the GI50 is reported as over 100 µM and the TGI is reported as over 100 µM. With `CN1CCN(c2ccc(Nc3nc(NCCCNS(=O)(=O)c4ccc(C(F)(F)F)cc4)c4sccc4n3)cc2)CC1` the GI50 was 2.49 µM and the TGI was 6.76 µM. With `N#Cc1cccc(NC(=O)c2cc(-c3ccc(F)cc3F)ccc2O)c1` the GI50 was 2.23 µM and the TGI was 9 µM. Compound `CC(C)(O)c1cncc(-c2ccc3ncc(C#N)c(N4CCc5cc(F)c(Cl)cc54)c3c2)c1` has a GI50 of 3.39 µM and a TGI of over 100 µM. `CCCn1cnc2c(c1=N)C(c1ccc(F)cc1)c1sc3c(C)cccc3c1O2` (stereo not given) gave a GI50 of 5.58 µM and a TGI of over 58.9 µM.

Source: PubChem BioAssay (NCI)
